# Assay results: a collection of fitness landscapes (doi:10.1016/j.celrep.2020.107928)
# In all, about 81,000 sequences were measured (“one-hybrid fitness for binding parS DNA”: median about -0.17, highest 2% from about 0.51 on). Some of the results follow.
# B1: Caulobacter ParB omega fusion; a variant is named by its letters at X, in order, B8GW30 (parent)
# chain: MESVVVGEPGMSEGRRGLGRGLSALLGEVDAAPAQAPGEQLGGSREAPIEILQRNPDQPRRTFREEDLEDLSNSIREKGVLQPILVRPSPDTAGEYQIVAGERAWRAAQRAGLKTVPIMVRELDDLAVLEIGIIENVQRADLNVLEEALSYKVLMEKFERTQENIAQTIGKSXSHVANXMRLLXLPDEVQSYLVSGELTAXHARAIAAAADPVALAKQIIEGGLSVRETEALARKAPNLSAGKSKGGRPPRVKDTDTQALESDLSSVLGLDVSIDHRGSTGTLTITYATLEQLDDLCNRLTRGI
# Variants of: B1
# Test: one-hybrid fitness for binding parS DNA (scaled: cognate 1, non-cognate 0); higher = stronger binding
# Details: with parS DNA site
# Summary of the method: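 Caulobacter ParB libraries with four specificity codons randomised were screened by bacterial one-hybrid selection in the E. coli USO strain, using a HIS3 reporter whose site lies 19 bp from the promoter. Selection ran for 48 hours at 37°C on M9 lacking histidine, with 0.1 mM IPTG and 5 mM 3-AT. Plasmids were Illumina-sequenced before and after selection, three replicate libraries were pooled, and variants with under 10 reads were dropped. Fitness is the log change in each variant's read ratio to wild type, rescaled against the cognate and non-cognate sites.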
row,Variant,one-hybrid fitness for binding parS DNA
1,RTTP,≤ 0.2
2,DFTF,≤ 0.2
3,IYNQ,≤ 0.2
4,TYHV,≤ 0.2
5,MHCE,≤ 0.2
6,KALM,≤ 0.2
7,VTCC,≤ 0.2
8,HDQN,≤ 0.2
9,NGQS,≤ 0.2
10,LMIA,≤ 0.2
11,QNAT,≤ 0.2
12,YVAC,≤ 0.2
13,LLAL,≤ 0.2
14,DFAR,≤ 0.2
15,YVMC,≤ 0.2
16,ISMC,≤ 0.2
17,HQVR,≤ 0.2
18,DWRR,≤ 0.2
19,TPYW,≤ 0.2
20,ATDY,≤ 0.2
21,TLNW,≤ 0.2
22,FHRY,≤ 0.2
23,RISG,1.01
24,PCSN,≤ 0.2
25,AAKG,≤ 0.2

row,Variant,one-hybrid fitness for binding parS DNA
1,NFVC,≤ 0.2
2,VLTK,≤ 0.2
3,GKQS,≤ 0.2
4,MVPS,≤ 0.2
5,GYKR,≤ 0.2
6,GNSS,≤ 0.2
7,GSGV,≤ 0.2
8,CSQT,≤ 0.2
9,HDIR,≤ 0.2
10,NPSE,≤ 0.2
11,FYPD,≤ 0.2
12,FFHS,≤ 0.2
13,TSYN,≤ 0.2
14,RSSI,≤ 0.2
15,IWRC,≤ 0.2
16,IHSF,≤ 0.2
17,PGKS,≤ 0.2
18,CSSP,≤ 0.2
19,LAYV,≤ 0.2
20,SSDR,≤ 0.2
21,DSVV,≤ 0.2
22,LLWY,≤ 0.2
23,MSNV,≤ 0.2
24,PLYC,≤ 0.2
25,MFMR,≤ 0.2

row,Variant,one-hybrid fitness for binding parS DNA
1,HRAG,0.25
2,AERE,≤ 0.2
3,LIGG,≤ 0.2
4,INES,≤ 0.2
5,RDKE,≤ 0.2
6,VAPK,≤ 0.2
7,REMD,≤ 0.2
8,QKHH,≤ 0.2
9,EVVM,≤ 0.2
10,HKGT,≤ 0.2
11,TDYC,≤ 0.2
12,SMVV,≤ 0.2
13,WNRR,≤ 0.2
14,HLKA,≤ 0.2
15,QFQG,≤ 0.2
16,ISRV,≤ 0.2
17,RTPS,0.822
18,MAVR,≤ 0.2
19,HMSL,≤ 0.2
20,PRSK,≤ 0.2
21,RTHE,≤ 0.2
22,VPDR,≤ 0.2
23,PLLS,≤ 0.2
24,NFDS,≤ 0.2
25,EGWS,≤ 0.2

row,Variant,one-hybrid fitness for binding parS DNA
1,LEHT,≤ 0.2
2,DSYA,≤ 0.2
3,WNDS,≤ 0.2
4,QEHM,≤ 0.2
5,RIAF,0.213
6,KSNS,≤ 0.2
7,QLLY,≤ 0.2
8,DIGF,≤ 0.2
9,YTMG,≤ 0.2
10,VAGH,≤ 0.2
11,QPNF,≤ 0.2
12,HTTF,≤ 0.2
13,DVAR,≤ 0.2
14,QRCV,≤ 0.2
15,TCCG,≤ 0.2
16,RVPD,≤ 0.2
17,GTEN,≤ 0.2
18,DVGT,≤ 0.2
19,IRMC,≤ 0.2
20,YDFT,≤ 0.2
21,QMVT,≤ 0.2
22,TKCS,≤ 0.2
